± gives the standard deviation of the averaged measurements. Laboratory Escherichia coli strains with one amino-acid change in an essential protein, pooled on minimal glucose agar with carbenicillin or gentamicin at twice the control MIC (plus kanamycin and chloramphenicol for the plasmids), 48 h. Fold change of barcode share against drug-free plates; higher = less susceptible. Active = above 20 in both replicates (the paper's putatively resistant). '<' = one read or none on drug, '>' = one read or none on a drug-free plate. Shares are relative, so most strains fall below 1 when a few take over. Listed are strains with at least 15 reads on both drug-free plates, and hits; most hits rest on fewer reference reads. Replicate rank correlation about 0.5. Edits are read from barcodes. Bounds are passed on as bounds.

First the molecules themselves.
B1: bioC; numbered along this chain (parent)
chain: MATVNKQAIAAAFGRAAAHYEQHADLQRQSADALLAMLPQRKYTHVLDAGCGPGWMSRHWRERHAQVTALDLSPPMLVQARQKDAADHYLAGDIESLPLATATFDLAWSNLAVQWCGNLSTALRELYRVVRPKGVVAFTTLVQGSLPELHQAWQAVDERPHANRFLPPDEIEQSLNGVHYQHHIQPITLWFDDALSAMRSLKGIGATHLHEGRDPRILTRSQLQRLQLAWPQQQGRYPLTYHLFLGVIARE
B2: thrA; numbered along this chain (parent)
chain: MRVLKFGGTSVANAERFLRVADILESNARQGQVATVLSAPAKITNHLVAMIEKTISGQDALPNISDAERIFAELLTGLAAAQPGFPLAQLKTFVDQEFAQIKHVLHGISLLGQCPDSINAALICRGEKMSIAIMAGVLEARGHNVTVIDPVEKLLAVGHYLESTVDIAESTRRIAASRIPADHMVLMAGFTAGNEKGELVVLGRNGSDYSAAVLAACLRADCCEIWTDVDGVYTCDPRQVPDARLLKSMSYQEAMELSYFGAKVLHPRTITPIAQFQIPCLIKNTGNPQAPGTLIGASRDEDELPVKGISNLNNMAMFSVSGPGMKGMVGMAARVFAAMSRARISVVLITQSSSEYSISFCVPQSDCVRAERAMQEEFYLELKEGLLEPLAVTERLAIISVVGDGMRTLRGISAKFFAALARANINIVAIAQGSSERSISVVVNNDDATTGVRVTHQMLFNTDQVIEVFVIGVGGVGGALLEQLKRQQSWLKNKHIDLRVCGVANSKALLTNVHGLNLENWQEELAQAKEPFNLGRLIRLVKEYHLLNPVIVDCTSSQAVADQYADFLREGFHVVTPNKKANTSSMDYYHQLRYAAEKSRRKFLYDTNVGAGLPVIENLQNLLNAGDELMKFSGILSGSLSYIFGKLDEGMSFSEATTLAREMGYTEPDPRDDLSGMDVARKLLILARETGRELELADIEIEPVLPAEFNAEGDVAAFMANLSQLDDLFAARVAKARDEGKVLRYVGNIDEDGVCRVKIAEVDGNDPLFKVKNGENALAFYSHYYQPLPLVLRGYGAGNDVTAAGVFADLLRTLSWKLGV
B3: lexA; numbered along this chain (parent)
chain: MKALTARQQEVFDLIRDHISQTGMPPTRAEIAQRLGFRSPNAAEEHLKALARKGVIEIVSGASRGIRLLQEEEEGLPLVGRVAAGEPLLAQQHIEGHYQVDPSLFKPNADFLLRVSGMSMKDIGIMDGDLLAVHKTQDVRNGQVVVARIDDEVTVKRLKKQGNKVELLPENSEFKPIVVDLRQQSFTIEGLAVGVIRNGDWL

The variants in the first series derive from B1. The series can be described thus: barcode share on antibiotic plates over drug-free plates; higher = less susceptible. The conditions noted are these: with Escherichia coli (laboratory strain); antibiotic: carbenicillin; 2× MIC (3.1 µg/mL). On the procedure:
(§1)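 A pool of E. coli strains, each edited to carry one amino-acid change in an essential protein, was grown for 48 h on minimal glucose agar with or without antibiotic; strain barcodes were sequenced; mean of two replicates.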
As to L35W, the “fold change of barcode share” value was determined as 0.551 ± 0.09.

Still in this series, the particulars now being: with Escherichia coli (laboratory strain); antibiotic: gentamicin; 2× MIC (MIC 0.45 µg/mL).
As to L35W, the “fold change of barcode share” value was 0.00809 ± 0.0081.

The variants in a further series derive from B2. The series is described as above. The conditions noted are these: with Escherichia coli (laboratory strain); antibiotic: carbenicillin; 2× MIC (3.1 µg/mL). On the procedure:
as §1
Turning to F336A, the “fold change of barcode share” value was 1.12 ± 0.5.

F336Q: the “fold change of barcode share” value amounted to 1.08 ± 0.51.

Regarding F336P, the “fold change of barcode share” value was found to be 1.17 ± 0.26.

Consider F336D, for which the “fold change of barcode share” value stood at 1.85 ± 1.2.

Consider F336W, for which the “fold change of barcode share” value came to 0.914 ± 0.4.

As for L348D, the “fold change of barcode share” value amounted to 2.05 ± 0.088.

L348A: the “fold change of barcode share” value came to 1.71 ± 1.1.

Consider L348P, for which the “fold change of barcode share” value turned out to be 1.57 ± 0.29.

For L348Q, the “fold change of barcode share” value stood at 1.87 ± 0.72.

For L348W, the “fold change of barcode share” value came to 1.6 ± 0.6.

With F318W, the “fold change of barcode share” value is 1.3 ± 0.0037.

As to F318Q, the “fold change of barcode share” value worked out at 1.66 ± 0.32.

Consider F318A, for which the “fold change of barcode share” value came out at 0.918 ± 0.11.

Turning to F318D, the “fold change of barcode share” value worked out at 0.466 ± 0.21.

Turning to V443Q, the “fold change of barcode share” value was 2.08 ± 0.22.

With V443P, the “fold change of barcode share” value was 2.488 ± 0.0035.

V443D: the “fold change of barcode share” value amounted to 2.69 ± 0.76.

Take V443A: the “fold change of barcode share” value amounted to 1.68 ± 0.31.

On to V346Q, for which the “fold change of barcode share” value was 0.507 ± 0.31.

V346D: the “fold change of barcode share” value was found to be 1.79 ± 0.05.

As to I399P, the “fold change of barcode share” value came to 0.953 ± 0.25.

For I399A, the “fold change of barcode share” value came out at 1.12 ± 0.4.

Consider I399Q, for which the “fold change of barcode share” value turned out to be 0.751 ± 0.2.

As for I399D, the “fold change of barcode share” value stood at 1.22 ± 0.1.

I399W: the “fold change of barcode share” value worked out at 0.914 ± 0.32.

V442A: the “fold change of barcode share” value worked out at 2 ± 0.46.

As for V442D, the “fold change of barcode share” value turned out to be 1.51 ± 0.14.

Take V442P: the “fold change of barcode share” value is 3.05 ± 0.28.

For the variant I349D, the “fold change of barcode share” value is 2.11 ± 1.5.

As for I349P, the “fold change of barcode share” value is 1.1 ± 0.15.

Turning to I349A, the “fold change of barcode share” value was determined as 1.81 ± 0.39.

As to I349W, the “fold change of barcode share” value worked out at 1.57 ± 0.64.

Regarding I349Q, the “fold change of barcode share” value was 1.28 ± 0.37.

Staying with this series, now noted: with Escherichia coli (laboratory strain); antibiotic: gentamicin; 2× MIC (MIC 0.45 µg/mL).
With F336A, the “fold change of barcode share” value was found to be 0.0177 ± 0.0036.

F336Q: the “fold change of barcode share” value was determined as 0.00762 ± 0.0008.

On to F336P, for which the “fold change of barcode share” value stood at 0.082 ± 0.1.

With F336D, the “fold change of barcode share” value was 0.00729 ± 0.0029.

On to F336W, for which the “fold change of barcode share” value is 0.00602 ± 0.0032.

For the variant L348D, the “fold change of barcode share” value turned out to be 0.0188 ± 0.012.

L348A: the “fold change of barcode share” value was determined as 0.0166 ± 0.014.

As to L348P, the “fold change of barcode share” value is 0.0127 ± 0.0077.

Consider L348Q, for which the “fold change of barcode share” value stood at 0.0102 ± 0.009.

For the variant L348W, the “fold change of barcode share” value came to 0.00624 ± 0.0037.

Regarding F318W, the “fold change of barcode share” value is 0.014 ± 0.00096.

With F318Q, the “fold change of barcode share” value was < 0.0175.

F318A: the “fold change of barcode share” value was < 0.0057.

With F318D, the “fold change of barcode share” value is < 0.014.

On to V443Q, for which the “fold change of barcode share” value is 0.0128 ± 0.003.

Regarding V443P, the “fold change of barcode share” value worked out at 0.0296 ± 0.033.

Consider V443D, for which the “fold change of barcode share” value came to 0.0198 ± 0.019.

Regarding V443A, the “fold change of barcode share” value came out at 0.00925 ± 0.0047.

Turning to V346Q, the “fold change of barcode share” value was < 0.0146.

As to V346D, the “fold change of barcode share” value is < 0.0159.

For I399P, the “fold change of barcode share” value was found to be 0.0159 ± 0.018.

With I399A, the “fold change of barcode share” value is 0.00752 ± 0.0052.

For the variant I399Q, the “fold change of barcode share” value is 0.00839 ± 0.0087.

As to I399D, the “fold change of barcode share” value is 0.0117 ± 0.011.

In the case of I399W, the “fold change of barcode share” value was found to be 0.013 ± 0.0024.

For V442A, the “fold change of barcode share” value turned out to be 0.0189 ± 0.013.

Regarding V442D, the “fold change of barcode share” value worked out at 0.022 ± 0.021.

V442P: the “fold change of barcode share” value stood at 0.0356 ± 0.039.

For I349D, the “fold change of barcode share” value was 0.0142 ± 0.0092.

With I349P, the “fold change of barcode share” value stood at 0.00494 ± 0.0014.

As to I349A, the “fold change of barcode share” value was determined as 0.00694 ± 0.0042.

Regarding I349W, the “fold change of barcode share” value amounted to 0.00799 ± 0.0012.

For the variant I349Q, the “fold change of barcode share” value came out at 0.00691 ± 0.0011.

In the next series the parent is B3. The description is as above. The conditions noted are these: with Escherichia coli (laboratory strain); antibiotic: gentamicin; 2× MIC (MIC 0.45 µg/mL). As for the experimental part:
as §1
Take I196P: the “fold change of barcode share” value is < 0.0127.

For the variant I196W, the “fold change of barcode share” value worked out at 0.0224 ± 0.021.

Consider I196Q, for which the “fold change of barcode share” value is < 0.0124.

For the variant I31A, the “fold change of barcode share” value was < 0.00619.

Consider L47P, for which the “fold change of barcode share” value is < 0.00882.

Take L47D: the “fold change of barcode share” value was < 0.00901.

For the variant L47A, the “fold change of barcode share” value worked out at 0.0185 ± 0.016.

For L47Q, the “fold change of barcode share” value stood at 0.0167 ± 0.0003.

As to L47W, the “fold change of barcode share” value is < 0.0184.

On to V144W, for which the “fold change of barcode share” value is 0.00755 ± 0.0032.

V144P: the “fold change of barcode share” value came out at 0.013 ± 0.0033.

Turning to V193P, the “fold change of barcode share” value was < 0.00789.

Turning to V193W, the “fold change of barcode share” value is 0.0316 ± 0.0079.

Consider V193D, for which the “fold change of barcode share” value was < 0.0178.

In the case of V193A, the “fold change of barcode share” value was found to be 0.00607 ± 0.00056.

For the variant V193Q, the “fold change of barcode share” value is < 0.0143.

V82A: the “fold change of barcode share” value was < 0.00781.

With V82Q, the “fold change of barcode share” value is < 0.0161.

V82W: the “fold change of barcode share” value was < 0.0155.

Take V82P: the “fold change of barcode share” value was < 0.0121.

Turning to V155D, the “fold change of barcode share” value was < 0.0147.

Consider V155W, for which the “fold change of barcode share” value is < 0.00964.

V155P: the “fold change of barcode share” value is < 0.0153.

Turning to V155A, the “fold change of barcode share” value was < 0.00938.

Still in this series, the particulars now being: with Escherichia coli (laboratory strain); antibiotic: carbenicillin; 2× MIC (3.1 µg/mL).
Regarding I196W, the “fold change of barcode share” value is 0.736 ± 0.69.

I31A: the “fold change of barcode share” value is 0.325 ± 0.079.

As to L47P, the “fold change of barcode share” value is 0.407 ± 0.35.

As to L47D, the “fold change of barcode share” value was found to be 0.557 ± 0.52.

With L47A, the “fold change of barcode share” value amounted to 1.39 ± 1.8.

L47Q: the “fold change of barcode share” value was determined as 0.392 ± 0.1.

With L47W, the “fold change of barcode share” value stood at 0.403 ± 0.073.

V144P: the “fold change of barcode share” value came to 0.257 ± 0.15.

For the variant V193P, the “fold change of barcode share” value was 0.277 ± 0.18.

Regarding V193W, the “fold change of barcode share” value worked out at 0.432 ± 0.0079.

V193D: the “fold change of barcode share” value was 0.219 ± 0.089.

As to V193A, the “fold change of barcode share” value came out at 0.3 ± 0.13.

With V193Q, the “fold change of barcode share” value was 0.228 ± 0.14.

Consider V82A, for which the “fold change of barcode share” value was 0.398 ± 0.13.

Turning to V82Q, the “fold change of barcode share” value stood at 0.241 ± 0.076.

In the case of V155D, the “fold change of barcode share” value was determined as 0.802 ± 0.92.

With V155W, the “fold change of barcode share” value was determined as 0.107 ± 0.0074.

In the case of V155P, the “fold change of barcode share” value stood at 0.203 ± 0.16.

On to V155A, for which the “fold change of barcode share” value was found to be 1.62 ± 0.094.

The values are drawn from the supplement of paper PMC11876631.
